# Measurements published in the supplement of paper PMC12217912.
# Some of the results follow. The full chains were built here from the parent and the listed change. Inactive controls read about 0.05.
# B1: TEV protease; numbered along this chain (parent)
# chain: MGESLFKGPRDYNPISSSICHLTNESDGHTTSLYGIGFGPFIITNKHLFRRNNGTLVVQSLHGVFKVKDTTTLQQHLVDGRDMIIIRMPKDFPPFPQKLKFREPQREERICLVTTNFQTKSMSSMVSDTSCTFPSGDGIFWKHWIQTKDGQCGSPLVSTRDGFIVGIHSASNFTNTNNYFTSVPKNFMELLTNQEAQQWVSGWRLNADSVLWGGHKVFMVKPEEPFQPVKEATQL
# Variants of: B1
# Test: raw area under fraction-flipped curve 0-4 h after induction (AUC4h, not background-subtracted), DNA-recorder readout of cleavage of the substrate (dimensionless); higher = more cleavage of the substrate by the protease variant
# Settings: temperature: 34 °C; time window: 0-4 h after rhamnose induction
# Protocol: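 In vivo DNA recorder in E. coli TOP10(DE3) ΔrhaA at 34 °C. Each TEVp single-site mutant (parent TEVp 0) is paired with a single-site variant of the 7-mer TEVs (canonical ENLYFQ|S). The substrate sits between flexible linkers in a Bxb1-sfGFP-TEVs-SsrA fusion, so cleavage stabilises Bxb1 and speeds flipping of a recombination array, read by NGS. The value is the raw area under the fraction-flipped curve over 0-4 h after rhamnose induction (AUC4h), with ≥20 reads per time point. It is not background-subtracted; inactive controls average about 0.047.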
# 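Note: Bxb1 expression induced with 0.2% (w/v) L-rhamnose at OD600 near 0.5, cultures sampled hourly, flipped fraction per protease–substrate barcode pair counted by paired-end Illumina sequencing.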
Variant,area with substrate ENLAFQS,area with substrate ENLCFQS,area with substrate ENLDFQS,area with substrate ENLEFQS,area with substrate ENLFFQS,area with substrate ENLGFQS,area with substrate ENLIFQS,area with substrate ENLKFQS,area with substrate ENLLFQS,area with substrate ENLMFQS,area with substrate ENLNFQS,area with substrate ENLRFQS,area with substrate ENLSFQS,area with substrate ENLHFQS,area with substrate ENLQFQS,area with substrate ENLVFQS,area with substrate ENLPFQS,area with substrate ENLTFQS
MGESLFKGPRDYNPISSSICHLTNESDGHTTSLYGIGFGPFIITNKHLFRRNNGTLVVQSPHGVFKVKDTTTLQQHLVDGRDMIIIRMPKDFPPFPQKLKFREPQREERICLVTTNFQTKSMSSMVSDTSCTFPSGDGIFWKHWIQTKDGQCGSPLVSTRDGFIVGIHSASNFTNTNNYFTSVPKNFMELLTNQEAQQWVSGWRLNADSVLWGGHKVFMVKPEEPFQPVKEATQL [L61P],0.052,0.0509,0.0701,0.0666,0.0786,0.055,0.0884,0.0734,0.0671,0.0734,0.0633,0.0687,0.0664,–,–,–,–,–
MGESLFKGPRDYNPISSSICHLTNESDGHTTSLYGIGFGPFIITNKHLFRRNNGTLVVQSLLGVFKVKDTTTLQQHLVDGRDMIIIRMPKDFPPFPQKLKFREPQREERICLVTTNFQTKSMSSMVSDTSCTFPSGDGIFWKHWIQTKDGQCGSPLVSTRDGFIVGIHSASNFTNTNNYFTSVPKNFMELLTNQEAQQWVSGWRLNADSVLWGGHKVFMVKPEEPFQPVKEATQL [H62L],0.0258,–,–,–,0.128,–,0.0663,0.0977,–,–,0.0539,–,0.0701,0.0899,0.0598,0.136,–,–
MGESLFKGPRDYNPISSSICHLTNESDGHTTSLYGIGFGPFIITNKHLFRRNNGTLVVQSLHGVDKVKDTTTLQQHLVDGRDMIIIRMPKDFPPFPQKLKFREPQREERICLVTTNFQTKSMSSMVSDTSCTFPSGDGIFWKHWIQTKDGQCGSPLVSTRDGFIVGIHSASNFTNTNNYFTSVPKNFMELLTNQEAQQWVSGWRLNADSVLWGGHKVFMVKPEEPFQPVKEATQL [F65D],0.0571,0.0654,0.0382,–,0.078,–,–,0.0572,0.0617,–,–,–,–,0.0623,–,0.0856,0.0596,–
MGESLFKGPRDYNPISSSICHLTNESDGHTTSLYGIGFGPFIITNKHLFRRNNGTLVVQSLHGVFGVKDTTTLQQHLVDGRDMIIIRMPKDFPPFPQKLKFREPQREERICLVTTNFQTKSMSSMVSDTSCTFPSGDGIFWKHWIQTKDGQCGSPLVSTRDGFIVGIHSASNFTNTNNYFTSVPKNFMELLTNQEAQQWVSGWRLNADSVLWGGHKVFMVKPEEPFQPVKEATQL [K66G],0.0696,–,0.07,–,0.0745,–,–,0.0726,–,–,0.0637,–,0.0602,–,–,–,–,0.0727
MGESLFKGPRDYNPISSSICHLTNESDGHTTSLYGIGFGPFIITNKHLFRRNNGTLVVQSLHGVFKFKDTTTLQQHLVDGRDMIIIRMPKDFPPFPQKLKFREPQREERICLVTTNFQTKSMSSMVSDTSCTFPSGDGIFWKHWIQTKDGQCGSPLVSTRDGFIVGIHSASNFTNTNNYFTSVPKNFMELLTNQEAQQWVSGWRLNADSVLWGGHKVFMVKPEEPFQPVKEATQL [V67F],0.0693,–,0.0606,0.054,0.096,–,0.0348,0.0662,–,0.0784,0.0574,0.0817,0.0588,–,–,–,–,–
